Assay results taken from publication PMC3900716.
No constants are given. Whether binding was seen depends on the method and setting. Binding seen in cells or lysates may run through a third protein. Some binding calls cover weakened binding; strength is not graded here. Where a sequence is shown, tags or fusion partners need not be part of it. Blank lines part the entries; values can stand above or below the binder they belong to.

By UniProt entry, the sequences of proteins in these tests, tags left out. Where a name states a change or a piece, a line headed by the entry shows the natural chain unless it says otherwise. Chains listed by the source or under a name are the forms on record and can include a tag or linker.
RET9MEN2A (C634R) (P07949, form named): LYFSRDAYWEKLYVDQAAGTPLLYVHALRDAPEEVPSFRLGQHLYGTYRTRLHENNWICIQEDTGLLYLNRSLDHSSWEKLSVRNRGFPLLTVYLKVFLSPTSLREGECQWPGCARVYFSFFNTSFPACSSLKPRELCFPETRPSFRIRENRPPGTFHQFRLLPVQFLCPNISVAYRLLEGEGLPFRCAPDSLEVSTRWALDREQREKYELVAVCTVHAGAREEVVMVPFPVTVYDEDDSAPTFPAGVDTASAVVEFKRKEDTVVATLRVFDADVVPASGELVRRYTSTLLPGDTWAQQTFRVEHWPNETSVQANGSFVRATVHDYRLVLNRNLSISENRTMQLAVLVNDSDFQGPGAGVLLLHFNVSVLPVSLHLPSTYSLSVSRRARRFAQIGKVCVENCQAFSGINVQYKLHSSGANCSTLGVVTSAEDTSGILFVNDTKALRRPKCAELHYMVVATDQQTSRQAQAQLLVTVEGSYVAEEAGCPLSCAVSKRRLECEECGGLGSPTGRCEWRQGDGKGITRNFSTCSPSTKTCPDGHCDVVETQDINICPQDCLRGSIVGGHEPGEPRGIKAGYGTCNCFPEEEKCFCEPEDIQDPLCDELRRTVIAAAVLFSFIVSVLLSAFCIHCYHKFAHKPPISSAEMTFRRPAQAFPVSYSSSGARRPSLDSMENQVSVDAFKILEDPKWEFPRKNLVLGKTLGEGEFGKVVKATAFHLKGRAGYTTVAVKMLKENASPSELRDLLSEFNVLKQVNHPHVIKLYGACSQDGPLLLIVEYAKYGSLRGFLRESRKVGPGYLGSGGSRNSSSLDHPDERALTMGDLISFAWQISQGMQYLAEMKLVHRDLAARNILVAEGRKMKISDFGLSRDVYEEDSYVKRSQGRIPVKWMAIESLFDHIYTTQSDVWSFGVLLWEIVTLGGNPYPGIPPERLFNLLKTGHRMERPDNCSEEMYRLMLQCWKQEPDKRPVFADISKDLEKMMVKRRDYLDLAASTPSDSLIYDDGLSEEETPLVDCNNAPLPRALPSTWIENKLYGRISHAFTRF
UniProt Q9NR12: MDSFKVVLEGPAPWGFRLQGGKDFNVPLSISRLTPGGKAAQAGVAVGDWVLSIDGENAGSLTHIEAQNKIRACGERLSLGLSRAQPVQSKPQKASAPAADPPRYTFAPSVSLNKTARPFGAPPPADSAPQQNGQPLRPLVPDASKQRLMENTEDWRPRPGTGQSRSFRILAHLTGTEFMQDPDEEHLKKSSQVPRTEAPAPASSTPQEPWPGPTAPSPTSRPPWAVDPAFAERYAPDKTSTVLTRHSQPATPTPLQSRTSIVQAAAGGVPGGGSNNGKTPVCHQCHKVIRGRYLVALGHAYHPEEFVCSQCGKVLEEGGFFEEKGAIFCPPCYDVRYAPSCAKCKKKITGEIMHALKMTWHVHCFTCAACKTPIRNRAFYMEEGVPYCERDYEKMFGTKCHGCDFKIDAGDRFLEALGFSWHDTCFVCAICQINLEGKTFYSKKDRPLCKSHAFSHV

Assays:
[1] = molecular target: RET9MEN2A (C634R) (human) (UniProt P07949); assay: co-IP; rabbit anti-RET with Protein A/G Plus-agarose, 300 µg whole cell lysate of co-transfected HEK293T cells, immunoblot; in Figure 4A cells with 20 nM MG-132 for 5 h before collection
[2] = molecular target: FLAG-tagged Enigma (human) (UniProt Q9NR12); assay: co-IP; anti-FLAG-M2 agarose, 300 µg whole cell lysate of co-transfected HEK293T cells, immunoblot

binding [1]: binds
B1: GST-tagged human Cbl-c (enzyme, UniProt Q9ULV8 1-474)
chain: MALAVAPWGRQWEEARALGRAVRMLQRLEEQCVDPRLSVSPPSLRDLLPRTAQLLREVAHSRRAAGGGGPGGPGGSGDFLLIYLANLEAKSRQVAALLPPRGRRSANDELFRAGSRLRRQLAKLAIIFSHMHAELHALFPGGKYCGHMYQLTKAPAHTFWRESCGARCVLPWAEFESLLGTCHPVEPGCTALALRTTIDLTCSGHVSIFEFDVFTRLFQPWPTLLKNWQLLAVNHPGYMAFLTYDEVQERLQACRDKPGSYIFRPSCTRLGQWAIGYVSSDGSILQTIPANKPLSQVLLEGQKDGFYLYPDGKTHNPDLTELGQAEPQQRIHVSEEQLQLYWAMDSTFELCKICAESNKDVKIEPCGHLLCSCCLAAWQHSDSQTCPFCRCEIKGWEAVSIYQFHGQATAEDSGNSSDQEGRELELGQVPLSAPPLPPRPDLPPRKPRNAQPKVRLLKGNSPPAALGPQDPAPA

binding [2]: binds
B2: HA-tagged Cbl-c (enzyme, UniProt Q9ULV8 1-474)
chain: B1 chain
